# Results taken from the supplement of paper PMC12645437, “Orthogonal IMiD-Degron Pairs Induce Selective Protein Degradation in Cells” (ACS Chemical Biology, 2025).
# The other results are listed elsewhere or left out.
# Biological target: no compound (DMSO)
# Assay: log2 fold change of degron read counts, EGFP-low vs EGFP+ sorted cells; higher = lower degron-EGFP level without compound (poor expression or instability)
# Conditions: compound: DMSO control; 18 h
# 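Further: jurkat cells carrying a lentiviral library of mutant zinc finger degrons fused to EGFP plus mCherry, mCherry+ cells FACS sorted, degron abundance counted by next-generation sequencing.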
row,Sequence,log2 fold change of degron read counts
1,FCCPVCGANFTQKGNLLRHIKL,-0.679
2,FWCPICGRCFTQKGNLLRHIKL,0.103
3,FTCDQCGAIFTQKGNLLRHIKL,-1.73
4,FVCNQCGRPFTQKGNLLRHIKL,-1.04
5,FCCPVCGAWFTQKGNLLRHIKL,0.515
6,FACNVCGARFTQKGNLLRHIKL,-0.517
7,FMCEICGRPFTQKGNLLRHIKL,-1.45
8,FICPQCGAHFTQKGNLLRHIKL,-0.253
9,FMCSVCGHSFTQKGNLLRHIKL,-0.271
10,FKCSVCGHCFTQKGNLLRHIKL,-0.861
11,FWCEICGRVFTQKGNLLRHIKL,0.938
12,FWCEICGRTFTQKGNLLRHIKL,0.0869
13,FRCEICGHGFTQKGNLLRHIKL,-1.44
14,FWCDQCGAGFTQKGNLLRHIKL,-0.767
15,FVCPICGANFTQKGNLLRHIKL,-0.257
16,LECPICGFVCTQKGNLLRHIKL,0.468

row,Sequence,log2 fold change of degron read counts
1,LGCEICGFICTQKGNLLRHIKL,1.49
2,FICPVCGADFTQKGNLLRHIKL,-0.265
3,FGCEQCGANFTQKGNLLRHIKL,-0.799
4,LGCPICGFECTQKGNLLRHIKL,0.457
5,FSCNQCGANFTQKGNLLRHIKL,-1.21
6,FCCNQCGRLFTQKGNLLRHIKL,0.354
7,FYCPICGHTFTQKGNLLRHIKL,0.146
8,FTCSVCGHIFTQKGNLLRHIKL,-0.602
9,LWCNQCGFICTQKGNLLRHIKL,2.94
10,FLCDQCGAWFTQKGNLLRHIKL,-0.0628
11,FRCSVCGHAFTQKGNLLRHIKL,-0.429
12,FNCPVCGAWFTQKGNLLRHIKL,0.34
13,FFCPICGHPFTQKGNLLRHIKL,0.835
14,FQCPICGHMFTQKGNLLRHIKL,0.364
15,FMCPVCGAMFTQKGNLLRHIKL,0.994
16,FMCDICGAKFTQKGNLLRHIKL,-0.57
